Experimental data reported in PMC12136788.
The other results are listed elsewhere or left out.

T1: UNK ZnF1-6 (called full-length) (human, UniProt Q9C0B0 30-357)
T1 sequence: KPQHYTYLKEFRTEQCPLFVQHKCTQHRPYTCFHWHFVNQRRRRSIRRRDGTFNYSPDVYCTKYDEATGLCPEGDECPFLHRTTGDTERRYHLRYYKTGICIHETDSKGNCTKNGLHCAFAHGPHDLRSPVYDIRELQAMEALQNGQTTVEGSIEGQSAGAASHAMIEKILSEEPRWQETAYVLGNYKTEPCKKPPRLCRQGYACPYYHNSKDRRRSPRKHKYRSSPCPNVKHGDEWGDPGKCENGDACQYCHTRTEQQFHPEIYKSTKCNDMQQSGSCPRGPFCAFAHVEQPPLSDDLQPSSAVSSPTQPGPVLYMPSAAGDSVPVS

B1: chr5:178185721:178187299:-|CDS|ENSG00000244234|control|control|control (ssRNA)
RNA: GGGAGUUCUACAGUCCGACGAUCAGCAUAGCAUUUAGAUUACGCUUGGCUUCUUUUGAUAGUAGUGGAAAACUAGUAUGUAGUAGAACAACUGGCUAUCAAAUACUUAUACUUAAAAAGGAUCAGGAACAAGUGGUGAUGAACCAACAGAGGAUUGAGCAUCA
B2: chr19:14119889:14120036:-|3pUTR|ENSG00000105011|msi1|FALSE|unique (ssRNA)
RNA: GGGAGUUCUACAGUCCGACGAUCAGCAGACCCACUCCAGCUUUCUGGUGUCACAGGCGGGAAUGUUAGUUAGUAGGUAGACUUAGAUCCCAUUUCUGUCCUGCUCCCAGGAAGAUUCUUAGGUCCUCUUCAAUCCAGCAGCCCCAACAGAGGAUUGAGCAUCA
B3: chr19:9526975:9527076:-|3pUTR|ENSG00000130818|unk|FALSE|unique (ssRNA)
RNA: GGGAGUUCUACAGUCCGACGAUCCCUCUCAGACCUUCCAUCAUUACUAUAUUUCACUUUUAUGCCUAUAAACACACACAAAUUAGCAUAUGUAAUCUAAUACAUUGUAGCUAUUUUUCAGAAGUUAUCAGAUCAAUUAAGUAUCAACAGAGGAUUGAGCAUCA
B4: chr15:39595431:39595532:+|3pUTR|ENSG00000137801|msi1_unk|FALSE|overlapping (ssRNA)
RNA: GGGAGUUCUACAGUCCGACGAUCCCCCAGGAUCACUUCUCCUUGGCUUCCUUCUUUUCUGUGCUUGCAUCAGUGUGGACUCCUAGAACGUGCGACCUGCCUCAAGAAAAUGCAGUUUUCAAAAACAGACUCAGCAUUCAGCCUCAACAGAGGAUUGAGCAUCA
B5: chr14:53043751:53043854:-|3pUTR|ENSG00000100523|unk|FALSE|unique (ssRNA)
RNA: GGGAGUUCUACAGUCCGACGAUCACUUAGAUUAAAUCUUGCUUUAUUUUUACUUUAAAAUUAGUCUUGCUAAGGCCUUAUGUUAGUUCAUACUUUCUUUUCAACAGUAAUCUUGUUUAUAAUCCAGUGUUUCUGUGUUUUAGGCAACAGAGGAUUGAGCAUCA
B6: chr17:61865808:61865921:-|3pUTR|ENSG00000108506|unk|total|mutant (ssRNA)
RNA: GGGAGUUCUACAGUCCGACGAUCUUCUAUGAGAAUGAGUUUGCCGCUGUUUCAAAUCAUGAAGUGCACCGUAUCACAUGUGACCGAAUAUUUAUAACUUUUUAUCCGAUGCUUAAUGUUCAAUUAAGUAAUUUUGAUGUGAAACAACAGAGGAUUGAGCAUCA
B7: chrX:53532849:53532950:-|3pUTR|ENSG00000086758|unk|total|mutant (ssRNA)
RNA: GGGAGUUCUACAGUCCGACGAUCGUGCUCCUCAGAUUCUGUGUUCAGAAGGAUUUGCUGCAUUGAGACUUGAAACCUUUGGACCGGGGAAAAAAUUAUAUAUAUAUAUAUUUUUUUGUUCUGUUUGCAUUUCUUAAUUUGUGCCAACAGAGGAUUGAGCAUCA
B8: chr6:57184343:57184440:+|3pUTR|ENSG00000112208|msi1_unk|FALSE|overlapping (ssRNA)
RNA: GGGAGUUCUACAGUCCGACGAUCUCUUCAGUUUUGUGAAUAACAAAACUAGCAAUAUUUUAAUUAUCUAUCUAGAGAUUUUUUAGAUUGAAUUCUUGUCUUGUACUAGGAUCUAGCAUAUUUCACUAUUCUGUGGAUGAAUACCAACAGAGGAUUGAGCAUCA
B9: chr12:10908389:10909298:-|CDS|ENSG00000212128|control|control|control (ssRNA)
RNA: GGGAGUUCUACAGUCCGACGAUCCAUGCUUUGUGAGACGAUUGGAGUCUUCUCUCCUUCAAGCCACUCCUUUCUUCUGAUUCUAGGAAACGCUAAGUUAAGACAGGCCUUUCUUUUGGUGGCAGCUAAGGUAUGGGCUAAACGCAACAGAGGAUUGAGCAUCA
B10: chr20:45898604:45898705:+|3pUTR|ENSG00000064601|unk|total|mutant (ssRNA)
RNA: GGGAGUUCUACAGUCCGACGAUCAGAGCCCUGUACAUCCCAGACUGGGCCCAGGGUCUCCCACCGACAGCCUGGGGGCAAGUCCGCACUUUAUUCCCGCAGCAGUUCCUGAAUGGGGUGGCCUGGCCCCUUCUCUGCUUAAAGCAACAGAGGAUUGAGCAUCA
B11: ENSG00000136451:be:win_651|CDS|ENSG00000136451|bound_else_gene|NA|bound_elsewhere_windowed (ssRNA)
RNA: GGGAGUUCUACAGUCCGACGAUCGACUUACCAUGUGAGGUCUCAUGAAGGAGGCAUCACCAAACCCUAUACUUGCAGUGUUUGUGGGAAAGGCUUCUCAAGGCCUGACCACUUAAGCUGUCAUGUAAAACAUGUCCAUUCAACCAACAGAGGAUUGAGCAUCA
B12: chr22:21921976:21922077:-|3pUTR|ENSG00000100034|msi1|FALSE|unique (ssRNA)
RNA: GGGAGUUCUACAGUCCGACGAUCGACUGCAGUGGGCUCGGAUAGGCCCAUUGAGGUUUUUAGAAAAGCAGGAUUUGUUUUGUUAGGGAGGCAUGAUUUUGGUGAGAUCUUUCUGGAAGAGUUUUCCGCCUCUUUGUGAUGCUGCAACAGAGGAUUGAGCAUCA
B13: chr6:89084018:89084151:+|CDS|ENSG00000146278|unk|FALSE|unique (ssRNA)
RNA: GGGAGUUCUACAGUCCGACGAUCACUGAAGUGAGCCAAAAGGAAAAUUAUGCUGGGGCAAAGUUUAGUGAUCCACCUUCUCCUAGUGUUCUUCCAAAGCCUCCUAGUCACUGGAUGGGAAGCACUGUUGAAAAUUCCAACCAACAACAGAGGAUUGAGCAUCA
B14: ENSG00000010278:stop:overlap|stop_codon|ENSG00000010278|stop_codon|NA|stop_codon (ssRNA)
RNA: GGGAGUUCUACAGUCCGACGAUCUUGGCAUGAUCUUCAGUAUGAUCUUGUGCUGUGCUAUCCGCAGGAACCGCGAGAUGGUCUAGAGUCAGCUUACAUCCCUGAGCAGGAAAGUUUACCCAUGAAGAUUGGUGGGAUUUUUUGCAACAGAGGAUUGAGCAUCA
B15: ENSG00000107863:be:win_6201|3pUTR|ENSG00000107863|bound_else_gene|NA|bound_elsewhere_windowed (ssRNA)
RNA: GGGAGUUCUACAGUCCGACGAUCACUAACAAAAGUGCCUCAUCAUAAAAAUACAGUUGGUUUUUAGGGUGCCAUAUUGUUAAAAUUAGAUAACUUACUUACAUUGAAUAAACGAAUGCGUUUUAUUGGUAACAGAUAUCAUUACAACAGAGGAUUGAGCAUCA
B16: chr17:49053040:49053141:+|3pUTR|ENSG00000159217|unk|FALSE|unique (ssRNA)
RNA: GGGAGUUCUACAGUCCGACGAUCCUCAGCUCCUGUGAGGGGUCUGGUUAGGAGAGAGCCAUUUUUAAGGACAGGGAGUUUUAUAGCCCUUUUCUACUUUCCUCCCCUCCUCCCAGUCCUUAUCAAUCUUUUUUCCUUUUUCCUCAACAGAGGAUUGAGCAUCA
B17: chr7:95359871:95360131:-|three_prime_utr|ENSG00000105852|control|control|control (ssRNA)
RNA: GGGAGUUCUACAGUCCGACGAUCCAAUGGCUCUGUGCUUCAGGGCACCUCUGUGGCUUCUGUGUACCAUGGGAAAAUUCUCAUAGGCACCGUAUUUCACAAAACUCUGUACUGUGAGCUCUAGACUCUAGAUAGUAAAAAAAACAACAGAGGAUUGAGCAUCA
B18: chr6:56640275:56640385:-|CDS|ENSG00000151914|unk|FALSE|bound_elsewhere (ssRNA)
RNA: GGGAGUUCUACAGUCCGACGAUCGACUUCCCGCCUGACUCCAUCUGUCACUCCAGCUUAUACACCUGGUUUCCCAUCAGGAUUAGUUCCAAAUUUCAGUUCAGGAGUAGAGCCAAAUUCAUUGCAAACUUUGAAGUUGAUGCACAACAGAGGAUUGAGCAUCA
B19: chr1:169588848:169589605:-|three_prime_utr|ENSG00000174175|control|control|control (ssRNA)
RNA: GGGAGUUCUACAGUCCGACGAUCAUAAUGCAUUUGCUGCAGGUUUCCAUAAACACCCAUGAAUCAAAGACAUGGAAUUACCUUAGAUUAGCUCUGGACCAGCCUGUUGGACCCGCUCUGGACCAACCCUGUUUCCUGAGUUUGCAACAGAGGAUUGAGCAUCA
B20: chr5:97028609:97028710:+|3pUTR|ENSG00000113441|msi1|FALSE|bound_elsewhere (ssRNA)
RNA: GGGAGUUCUACAGUCCGACGAUCUUGCAAAAGCCAAGGUAAAGCCAGGAUCGCUGCCAAGUUGUUUGCACUCUUUGGAGUUCUAGUUAGCUCAGGGCCUGACUGUAUUUUUCAUCCAUCUUUUCUGAAGUGUCUUUGGGCAGUCAACAGAGGAUUGAGCAUCA
B21: chr4:41958937:41959038:+|3pUTR|ENSG00000109133|msi1|total|mutant (ssRNA)
RNA: GGGAGUUCUACAGUCCGACGAUCUCUUGAACUCCUGGCCUCAAGUGAUCUGCCCGCCUCGACCUCCCAGAGUGCUGGGAUUACCGGUGUGAGCCACUAAGCCUGGCUGAGACAACCCGUUUCCCUUAACUCAUUGGAAUUCUCCAACAGAGGAUUGAGCAUCA
B22: chr14:101901747:101901860:+|CDS|ENSG00000078304|unk|total|mutant (ssRNA)
RNA: GGGAGUUCUACAGUCCGACGAUCCUGGCCAAAGACUCACAGUCCAAAAGAAGUAAUGUUCUUAAACGAAUCCGAAGAGAUUUCCGAUGUCAUUGAACCAUCAGAAUUUGUGAAGAUCAUGGAACCCCUCUUCCGGCAGUUGGCCAACAGAGGAUUGAGCAUCA

biological target: T1, UNK ZnF1-6 (called full-length); experiment: nsRBNS (natural sequence RNA bind-n-seq); RBNS binding buffer (assumed for nsRBNS): 25 mM Tris pH 7.5, 150 mM KCl, 3 mM MgCl2, 0.01% Triton X-100, 500 ug/ml BSA, 20 U/ml SUPERase-In, 4 C; UNK is unkempt and MSI1 is Musashi-1; names of the RNAs are library labels; protein concentration not given here; high values mean tight binding

Binder	binding signal
B1	1.25 enrichment R
B2	3.78 enrichment R
B3	4.62 enrichment R
B4	0.66 enrichment R
B5	15 enrichment R
B6	0.384 enrichment R
B7	0.637 enrichment R
B8	6.31 enrichment R
B9	0.609 enrichment R
B10	1.01 enrichment R
B11	0.353 enrichment R
B12	0.813 enrichment R
B13	0.494 enrichment R
B14	0.514 enrichment R
B15	1.18 enrichment R
B16	3.9 enrichment R
B17	2.18 enrichment R
B18	0.584 enrichment R
B19	1.37 enrichment R
B20	0.475 enrichment R
B21	0.642 enrichment R
B22	0.427 enrichment R
